Test results as given in PubChem BioAssay (Tox21).
Several values for one entry are separate records, joined by “and”; a condition that tells them apart may be missing. Equal entries are not always repeated. Inconclusive results, whose numbers are uncertain, are shown with a selection of clear calls. For some assays here: Potencies beside an inconclusive call are fits to weak or partial responses and may not hold up. The source holds several records for some structures; these can differ, active in one and inactive in another. Activity calls are given as the source filed them. Unless noted, calls come from the whole dose curve; as a rule, active = well fitted curve in the direction sought with a large enough effect in the repeat runs; inconclusive = weak or mixed curves; inactive = no such curve, though single readings can be large; an effect the other way counts as inactive or inconclusive.

Columns and labels:
[1] = qHTS assay to identify small molecule antagonists of the androgen receptor (AR) signaling pathway - cell viability counter screen (AID 743033; note: potency is the fitted concentration of half-maximal effect; nearly all actives have a fitted effect of over 45% in size); conditions: AR-bla HEK293 viability, CellTiter-Glo luminescence, 16 h; series mostly up to 58.5 µM
[2] = qHTS assay to identify small molecule antagonists of the androgen receptor (AR) signaling pathway using the MDA cell line - cell viability counter screen (AID 743041; note: potency is the fitted concentration of half-maximal effect; nearly all actives have a fitted effect of over 45% in size); conditions: MDA-kb2 viability, CellTiter-Fluor, 16 h, cells co-treated with R1881 androgen agonist; viability change, negative = cytotoxic: at 70.3 µM (top of the series) unless noted
Method in brief: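 Viability read by CellTiter-Fluor fluorescence in the same wells as the antagonist screen, added after 15.5 h of a 16 h, 37C exposure. Human breast carcinoma MDA-kb2 AR-luc cells, compounds co-dosed with agonist R1881.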

[3] = qHTS assay to identify small molecule antagonists of the thyroid receptor (TR) signaling pathway - cell viability counter screen (AID 743064); conditions: GH3.TRE-Luc viability, CellTiter-Fluor, 24 h; activity change, negative = cytotoxic: at 70.3 µM (top of the series) unless noted; note: potency is the fitted concentration of half-maximal effect; nearly all actives have a fitted effect of over 50% in size
Method in brief: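 Same-well viability check: GH3.TRE-Luc cells stimulated with 1 nM T3 alongside test compound for 23.5 h, followed by CellTiter-Fluor fluorescence.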

[4] = qHTS assay to identify small molecule antagonists of the thyroid receptor (TR) signaling pathway (AID 743065); conditions: GH3.TRE-Luc, T3-stimulated luciferase inhibition, 23.5 h; series mostly up to 70.3 µM; note: potency is the fitted concentration of half-maximal effect; nearly all actives have a fitted effect of over 55% in size
Method in brief: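 Antagonism measured as loss of luciferase signal in GH3 cells stably carrying a TRE-luciferase reporter, co-treated with compound and T3 (1 nM final) for 23.5 h at 37 C. Viability was read in the same well by CellTiter-Fluor.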

[5] = target: Androgen receptor (Homo sapiens) (UniProt P10275); assay: qHTS assay to identify small molecule agonists of the androgen receptor (AR) signaling pathway (AID 743036; active = well fitted activation curve with a large enough effect in the signal ratio in the repeat runs, with a control signal flat, not every such curve was filed as active; inconclusive = weak or mixed curves, or effect the other way; inactive = no such curve, though single readings can be large or run the other way; the % refers to the signal ratio; note: % is set by controls: 0 for no effect and ±100 for the full control effect); conditions: HEK293 AR-UAS-bla GripTite, beta-lactamase FRET ratio, 16 h; activation: at 62.4 µM (top of the series) unless noted
Sequence of UniProt P10275 (P10275 whole entry, looked up): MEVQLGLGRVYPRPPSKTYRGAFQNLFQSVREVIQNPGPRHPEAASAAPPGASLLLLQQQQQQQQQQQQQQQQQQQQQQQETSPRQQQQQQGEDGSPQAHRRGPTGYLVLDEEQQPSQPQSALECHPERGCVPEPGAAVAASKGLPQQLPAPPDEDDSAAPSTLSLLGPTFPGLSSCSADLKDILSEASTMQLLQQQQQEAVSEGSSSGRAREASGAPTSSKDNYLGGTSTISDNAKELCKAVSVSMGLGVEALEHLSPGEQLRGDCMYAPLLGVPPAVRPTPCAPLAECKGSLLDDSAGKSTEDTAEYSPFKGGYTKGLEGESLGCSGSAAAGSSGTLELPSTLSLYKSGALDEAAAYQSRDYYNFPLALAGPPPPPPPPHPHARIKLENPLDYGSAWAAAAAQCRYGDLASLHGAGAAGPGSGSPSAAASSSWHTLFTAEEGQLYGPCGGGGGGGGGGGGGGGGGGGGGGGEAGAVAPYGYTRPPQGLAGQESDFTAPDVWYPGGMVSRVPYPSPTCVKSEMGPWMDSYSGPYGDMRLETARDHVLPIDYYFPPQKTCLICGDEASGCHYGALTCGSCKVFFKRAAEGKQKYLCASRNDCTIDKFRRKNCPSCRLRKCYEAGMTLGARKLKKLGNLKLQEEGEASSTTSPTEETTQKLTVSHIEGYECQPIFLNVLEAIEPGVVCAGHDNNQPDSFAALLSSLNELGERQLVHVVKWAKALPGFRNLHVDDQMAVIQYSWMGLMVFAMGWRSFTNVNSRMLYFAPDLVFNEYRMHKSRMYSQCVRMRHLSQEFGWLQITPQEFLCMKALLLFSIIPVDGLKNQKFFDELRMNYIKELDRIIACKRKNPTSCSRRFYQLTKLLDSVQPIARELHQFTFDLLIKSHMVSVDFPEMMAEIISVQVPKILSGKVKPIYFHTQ
Method in brief: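 Agonist activity was scored by beta-lactamase reporter fluorescence in stably transfected HEK293 cells exposed to compounds for 16 h at 37C and 5% CO2. Substrate loading took 2 h at room temperature.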

[6] = target: Androgen receptor (Homo sapiens) (UniProt P10275); assay: qHTS assay to identify small molecule antagonists of the androgen receptor (AR) signaling pathway using the MDA cell line (AID 743042; note: potency is the fitted concentration of half-maximal effect; nearly all actives have a fitted effect of over 55% in size); conditions: MDA-kb2 AR-luc, MMTV luciferase, R1881 antagonist, 16 h; series mostly up to 70.3 µM
Method in brief: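 Antagonist mode: compounds plus R1881 agonist added to MDA-kb2 AR-luc cells, incubated 16 h at 37C. Luciferase reporter luminescence quantified, with multiplexed CellTiter-Fluor readout for cell viability.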

[7] = target: Androgen receptor (Homo sapiens) (UniProt P10275); assay: qHTS assay to identify small molecule agonists of the androgen receptor (AR) signaling pathway using the MDA cell line (AID 743040; note: % is set by controls: 0 for no effect and ±100 for the full control effect; nearly all actives have a fitted effect of over 20% in size); conditions: MDA-kb2 AR-luc cells, MMTV luciferase, 16 h; activity change: at 70.3 µM (top of the series), stronger effect = higher value
Method in brief: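 Luciferase agonist assay: 16 h compound exposure at 37C without CO2 in MDA-kb2 AR-luc cells, whose MMTV promoter responds to both AR and GR. Luminescence measured after 30 min room-temperature incubation with ONE-Glo.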
Tags give direction and shape of the fitted curve.

Which Potency [1] does the source give for `Clc1ccc2c(c1)C(N1CCNCC1)=Nc1ccccc1O2` here?
The Potency was inconclusive: 0.0239 µM [cytotoxic, full curve, poor fit].

And the Potency [2]?
The Potency was inconclusive: 4.86 µM [cytotoxic, full curve, poor fit].

What about the Potency [3] of the same compound?
Its Potency is inconclusive: 26.6 µM [cytotoxic, partial curve, poor fit] and active: 30.6 µM.

Which results are given for `Clc1nc(C(Cl)(Cl)Cl)c(Cl)c(Cl)c1Cl`?
Potency [1]: inconclusive: 21.9 µM [cytotoxic, partial curve]; Potency [2]: inconclusive: 24.3 µM [cytotoxic, full curve]; Potency [3]: active: 21.7 µM

Which results are given for `CCN(CC)CCOc1ccc(/C(=C(\Cl)c2ccccc2)c2ccccc2)cc1`?
Potency [1]: inconclusive: 6.74 µM [cytotoxic, full curve, poor fit]; Potency [2]: inconclusive: 55.6 µM [cytotoxic, single point]; Potency [3]: active: 7.5 µM and active: 7.86 µM

With `CCCCCCCCCCCCc1ccc(O)cc1` as the compound, how does the Potency [1] read?
Its Potency is active: 34.7 µM.

What about the Potency [2] of the same compound?
Its Potency is active: 54.5 µM.

What about the Potency [3] of the same compound?
The Potency was active: 13.7 µM.

For `COC(=O)C1=C(C)NC(C)=C(C(=O)OC)C1c1ccccc1[N+](=O)[O-]`, which Potency [1] is on record?
The Potency was active: 49 µM.

What about the Potency [2] of the same compound?
Its Potency is inconclusive: 68.7 µM [cytotoxic].

And the Potency [3]?
The Potency was inconclusive: 26.6 µM [cytotoxic, partial curve].

What about the Potency [4] of the same compound?
The Potency was inconclusive: 29.8 µM [inhibitor, single point] and active: 30.7 µM.

With `Oc1c(Cl)cc(Cl)c(Cl)c1Cc1c(O)c(Cl)cc(Cl)c1Cl` as the compound, how does the Potency [1] read?
The Potency was active: 9.52 µM and active: 1.54 µM and active: 1.74 µM.

And the activation [5]?
Its activation is inconclusive: 17%.

What about the Potency [2] of the same compound?
The Potency was active: 13.3 µM and active: 17.2 µM and active: 19.3 µM.

And the Potency [6]?
The Potency was active: 13.3 µM and active: 2.16 µM and active: 5.45 µM.

And the Potency [3]?
The Potency was active: 26.6 µM and active: 9.66 µM and active: 24.3 µM.

For `CCc1cccc(C)c1N`, which activity change [7] is on record?
Its activity change is inconclusive: -1.67% [phenotype inactive].

What about the Potency [6] of the same compound?
The Potency was inconclusive: 1.5 nM [inhibitor, partial curve, poor fit].
